Test [1] concerns the target endogenous RasGAP of CCL39 cells (Chinese hamster (endogenous in CCL39)). The experiment in a line: co-IP; anti-RasGAP immunoprecipitation of endogenous proteins from non-confluent, exponentially growing CCL39 or U2OS cells lysed in 1% Triton X-100 lysis buffer; protein G sepharose; blots for G3BP1 and p190 RhoGAP.
Test [2] addresses poly-histidine- and S-tagged mouse USP10 (6xHis-Stag-mUSP10.dn3, #646) (mouse) (UniProt P52479). The experiment in a line: pull-down; S-tag pull-down from 1 mg lysate of transfected HEK293T cells (Stag lysis buffer): biotinylated S-protein 3 h at 4°C, then streptavidin beads; washed with PBS, 1% NP40; blot with anti-HA; in Figure 4 cells were treated with TAT-RasGAP_(317-326) for 20 h before lysis.

Protein sequences, listed by entry. Tags and fused reporters are not part of them.
UniProt P52479: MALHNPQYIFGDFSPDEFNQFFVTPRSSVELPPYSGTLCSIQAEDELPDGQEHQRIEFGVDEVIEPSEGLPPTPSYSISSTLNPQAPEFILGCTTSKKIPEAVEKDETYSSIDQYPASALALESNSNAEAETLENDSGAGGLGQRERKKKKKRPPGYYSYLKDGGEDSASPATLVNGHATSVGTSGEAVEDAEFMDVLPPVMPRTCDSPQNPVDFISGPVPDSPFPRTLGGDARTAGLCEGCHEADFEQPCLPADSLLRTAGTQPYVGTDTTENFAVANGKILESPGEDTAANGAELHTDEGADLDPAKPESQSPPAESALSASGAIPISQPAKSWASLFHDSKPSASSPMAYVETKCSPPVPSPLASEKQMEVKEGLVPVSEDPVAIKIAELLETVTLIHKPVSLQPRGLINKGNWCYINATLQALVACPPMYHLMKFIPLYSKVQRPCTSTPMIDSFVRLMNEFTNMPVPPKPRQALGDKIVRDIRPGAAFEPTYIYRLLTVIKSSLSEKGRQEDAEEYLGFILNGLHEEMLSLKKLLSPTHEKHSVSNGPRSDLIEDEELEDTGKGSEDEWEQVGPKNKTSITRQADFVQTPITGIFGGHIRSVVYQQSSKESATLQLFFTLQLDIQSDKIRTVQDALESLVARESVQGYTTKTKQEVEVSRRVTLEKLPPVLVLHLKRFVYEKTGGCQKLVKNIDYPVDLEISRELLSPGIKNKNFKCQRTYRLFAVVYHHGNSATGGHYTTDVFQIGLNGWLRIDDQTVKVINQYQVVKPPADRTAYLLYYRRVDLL

In test [3] the target is T1, S-tagged fragment N2 of human RasGAP (Stag-hRasGAP[158-455].dn3, #754) (human) (UniProt P20936).
T1 sequence: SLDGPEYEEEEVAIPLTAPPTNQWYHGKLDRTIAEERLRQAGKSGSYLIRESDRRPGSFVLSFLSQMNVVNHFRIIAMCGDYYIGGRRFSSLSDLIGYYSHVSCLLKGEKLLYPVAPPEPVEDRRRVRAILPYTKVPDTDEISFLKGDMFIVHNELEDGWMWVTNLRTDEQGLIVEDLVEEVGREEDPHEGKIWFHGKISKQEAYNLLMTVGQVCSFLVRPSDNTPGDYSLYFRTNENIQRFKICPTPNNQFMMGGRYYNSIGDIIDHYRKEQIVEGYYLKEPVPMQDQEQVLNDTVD
Described as above.

The target in test [4] is T2, V5-tagged human RasGAP lacking its first two methionine residues (V5-hRasGAP[3-1931].dn3, #686) (human) (UniProt P20936).
T2 sequence: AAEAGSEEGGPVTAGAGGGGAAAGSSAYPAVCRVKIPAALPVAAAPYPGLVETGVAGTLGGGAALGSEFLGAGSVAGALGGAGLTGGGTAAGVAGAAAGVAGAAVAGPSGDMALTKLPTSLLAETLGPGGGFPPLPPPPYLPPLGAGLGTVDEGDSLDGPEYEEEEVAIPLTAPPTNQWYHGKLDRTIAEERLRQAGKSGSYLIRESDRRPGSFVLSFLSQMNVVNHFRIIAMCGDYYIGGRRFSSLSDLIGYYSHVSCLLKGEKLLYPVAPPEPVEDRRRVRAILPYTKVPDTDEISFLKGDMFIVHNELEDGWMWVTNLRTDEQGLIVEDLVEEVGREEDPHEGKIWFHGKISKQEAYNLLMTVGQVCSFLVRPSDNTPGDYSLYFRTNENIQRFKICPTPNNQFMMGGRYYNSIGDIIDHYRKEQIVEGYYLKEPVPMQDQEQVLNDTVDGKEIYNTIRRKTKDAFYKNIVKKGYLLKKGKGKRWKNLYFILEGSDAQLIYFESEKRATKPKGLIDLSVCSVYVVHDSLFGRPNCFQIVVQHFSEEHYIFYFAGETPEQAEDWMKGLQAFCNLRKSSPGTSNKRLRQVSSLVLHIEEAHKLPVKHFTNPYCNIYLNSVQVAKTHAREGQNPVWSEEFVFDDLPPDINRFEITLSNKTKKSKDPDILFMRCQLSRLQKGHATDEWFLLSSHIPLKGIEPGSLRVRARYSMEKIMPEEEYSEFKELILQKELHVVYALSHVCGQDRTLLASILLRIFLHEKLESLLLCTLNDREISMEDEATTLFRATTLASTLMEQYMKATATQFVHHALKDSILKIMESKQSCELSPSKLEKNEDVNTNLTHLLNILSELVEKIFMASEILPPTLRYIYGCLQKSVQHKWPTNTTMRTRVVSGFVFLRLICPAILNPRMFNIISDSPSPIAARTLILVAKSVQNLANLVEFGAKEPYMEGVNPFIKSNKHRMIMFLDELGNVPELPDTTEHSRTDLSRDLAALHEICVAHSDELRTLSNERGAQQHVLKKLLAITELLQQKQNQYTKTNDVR
Briefly: co-IP; anti-V5 immunoprecipitation from 1 mg lysate of transfected HEK293T cells; blots with HA- and V5-specific antibodies.

Test [5] concerns the target T3, endogenous RasGAP of U2OS cells (human (endogenous in U2OS)) (UniProt P20936).
T3 sequence: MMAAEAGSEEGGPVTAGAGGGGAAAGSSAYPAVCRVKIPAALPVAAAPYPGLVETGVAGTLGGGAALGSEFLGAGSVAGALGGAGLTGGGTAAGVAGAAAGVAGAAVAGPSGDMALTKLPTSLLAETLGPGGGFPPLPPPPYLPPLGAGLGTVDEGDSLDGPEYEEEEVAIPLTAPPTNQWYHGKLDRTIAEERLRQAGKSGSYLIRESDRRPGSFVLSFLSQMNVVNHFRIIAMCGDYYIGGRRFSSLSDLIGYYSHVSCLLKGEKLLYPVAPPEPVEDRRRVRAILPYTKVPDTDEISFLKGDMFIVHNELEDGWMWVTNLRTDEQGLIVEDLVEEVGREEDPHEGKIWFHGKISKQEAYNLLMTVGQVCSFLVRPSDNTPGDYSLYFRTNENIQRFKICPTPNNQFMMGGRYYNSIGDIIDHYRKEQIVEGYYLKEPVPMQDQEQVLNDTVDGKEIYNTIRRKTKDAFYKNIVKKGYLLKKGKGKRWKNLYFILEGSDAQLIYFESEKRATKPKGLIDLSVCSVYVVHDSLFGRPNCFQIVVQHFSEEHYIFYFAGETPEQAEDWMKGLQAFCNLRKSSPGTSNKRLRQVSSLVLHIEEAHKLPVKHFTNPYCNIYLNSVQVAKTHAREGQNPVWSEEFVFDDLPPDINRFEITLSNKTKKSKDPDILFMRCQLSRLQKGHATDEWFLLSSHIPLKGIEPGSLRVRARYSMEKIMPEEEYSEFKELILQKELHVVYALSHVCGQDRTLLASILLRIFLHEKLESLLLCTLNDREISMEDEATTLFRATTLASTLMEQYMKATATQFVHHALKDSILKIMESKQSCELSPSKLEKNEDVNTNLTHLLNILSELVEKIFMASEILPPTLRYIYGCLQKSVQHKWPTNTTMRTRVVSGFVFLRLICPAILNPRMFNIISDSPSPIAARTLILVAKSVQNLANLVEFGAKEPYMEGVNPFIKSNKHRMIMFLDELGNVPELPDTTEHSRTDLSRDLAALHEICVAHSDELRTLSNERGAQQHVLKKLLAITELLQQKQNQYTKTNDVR
Briefly: co-IP; anti-RasGAP immunoprecipitation of endogenous proteins from non-confluent, exponentially growing CCL39 or U2OS cells lysed in 1% Triton X-100 lysis buffer; protein G sepharose; blots for G3BP1 and p190 RhoGAP.

These are yes or no findings as the source states them, for the method shown. In cells and extracts the contact can be indirect. Some binding calls cover weakened binding; strength is not graded here. For part of these data: Sequences can lack the tags named with a protein.

Regarding “endogenous G3BP1 of CCL39 cells (from UniProt A0A9J7JVX0 1-465)”, the binding entry in test [1] was “no binding”.
As for “HA-tagged human G3BP1 (HA-hG3BP1.dn3, #541) (from UniProt Q13283-1 1-466)”, the binding result in test [2] is “binds”; in test [3], “no binding”; in test [4], “no binding”.

B1: HA-tagged rat p190RhoGAP (HA-rRhoGAP.prc, #196) (protein, UniProt P81128 1-1499)
chain: MMMARKQDVRIPTYNISVVGLSGTEKEKGQCGIGKSCLCNRFVRPSADEFHLDHTSVLSTSDFGGRVVNNDHFLYWGEVSRSLEDCVECKMHIVEQTEFIDDQTFQPHRSTALQPYIKRAAATKLASAEKLMYFCTDQLGLEQDFEQKQMPDGKLLVDGFLLGIDVSRGMNRNFDDQLKFVSNLYNQLAKTKKPIVIVLTKCDEGVERYIRDAHTFALSKKNLQVVETSARSNVNVDLAFSTLVQLIDKSRGKTKIIPYFEALKQQSQQIATAKDKYEWLVSRIVKSHNENWLSVSRKMQASPEYQDYVYLEGTQKAKKLFLQHIHRLKHEHIERRRKLYLAALPLAFEALIPNLDEVDHLSCIKAKKLLETKPEFLKWFVVLEETPWDETSHIDNMENERIPFDLMDTVPAEQLYETHLEKLRNERKRAEMRRAFKENLETSPFITPGKPWEEARSFIMNEDFYQWLEESVYMDIYGKHQKQIIDRAKEEFQELLLEYSELFYELELDAKPSKEKMGVIQDVLGEEQRFKALQKLQAERDALILKHIHFVYHPTKETCPSCPACVDAKIEHLISSRFIRPSDRNQKNSLSDPNIDRINLVILGKDGLARELANEIRALCTNDDKYVIDGKMYELSLRPIEGNVRLPVNSFQTPTFQPHGCLCLYNSKESLSYVVESIEKSRESTLGRRDNHLVHLPLTLILVNKRGDTSGETLHSLIQQGQQIASKLQCVFLDPASAGIGYGRNINEKQISQVLKGLLDSKRNLNLVSSTASIKDLADVDLRIVMCLMCGDPFSADDILSPVLQSQTCKSSHCGSSNSVLLELPIGVHKKRIELSVLSYHSSFSIRKSRLVHGYIVFYSAKRKASLAMLRAFLCEVQDIIPIQLVALTDGAIDVLDNDLSREQLTEGEEIAQEIDGRFTSIPCSQPQHKLELFHPFFKDVVEKKNIIEATHMYDNVAEACSTTEEVFNSPRAGSPLCNSNLQDSEEDVEPPSYHLFREDATLPSLSKDHSKFSMELEGNDGLSFIMSNFESKLNNKVPPPVKPKPPVHFEITKDLSYLDQGHREGQRKSMSSSPWMPQDGFDPSDYAEPMDAVVKPRNEEENIYSVPHDSTQGKIITIRNINKAQSNGSGNGSDSEMDTSSLERGRKVSAVSKPVLYRTRCTRLGRFASYRTSFSVGSDDELGPIRKKEEDQASQGYKGDNAVIPYETDEDPRRRNILRSLRRNTKKPKPKPRPSITKATWESNYFGVPLTTVVTPEKPIPIFIERCIEYIEATGLSTEGIYRVSGNKSEMESLQRQFDQDHNLDLAEKDFTVNTVAGAMKSFFSELPDPLVPYSMQIDLVEAHKINDREQKLHALKEVLKKFPKENHEVFKYVISHLNRVSHNNKVNLMTSENLSICFWPTLMRPDFSSMDALTATRSYQTIIELFIQQCPFFFYNRPISEPPGAAPGSPSAMAPTVPFLTSTPATSQPSPPQSPPPTPQSPMQPLLSSQLQAEHTL
Turning to B1, in test [4], the binding entry was “binds”.

B2: endogenous p190 RhoGAP of U2OS cells (protein, UniProt Q9NRY4 1-1499)
chain: MMMARKQDVRIPTYNISVVGLSGTEKEKGQCGIGKSCLCNRFVRPSADEFHLDHTSVLSTSDFGGRVVNNDHFLYWGEVSRSLEDCVECKMHIVEQTEFIDDQTFQPHRSTALQPYIKRAAATKLASAEKLMYFCTDQLGLEQDFEQKQMPDGKLLVDGFLLGIDVSRGMNRNFDDQLKFVSNLYNQLAKTKKPIVVVLTKCDEGVERYIRDAHTFALSKKNLQVVETSARSNVNVDLAFSTLVQLIDKSRGKTKIIPYFEALKQQSQQIATAKDKYEWLVSRIVKNHNENWLSVSRKMQASPEYQDYVYLEGTQKAKKLFLQHIHRLKHEHIERRRKLYLAALPLAFEALIPNLDEIDHLSCIKAKKLLETKPEFLKWFVVLEETPWDATSHIDNMENERIPFDLMDTVPAEQLYEAHLEKLRNERKRVEMRRAFKENLETSPFITPGKPWEEARSFIMNEDFYQWLEESVYMDIYGKHQKQIIDKAKEEFQELLLEYSELFYELELDAKPSKEKMGVIQDVLGEEQRFKALQKLQAERDALILKHIHFVYHPTKETCPSCPACVDAKIEHLISSRFIRPSDRNQKNSLSDPNIDRINLVILGKDGLARELANEIRALCTNDDKYVIDGKMYELSLRPIEGNVRLPVNSFQTPTFQPHGCLCLYNSKESLSYVVESIEKSRESTLGRRDNHLVHLPLTLILVNKRGDTSGETLHSLIQQGQQIASKLQCVFLDPASAGIGYGRNINEKQISQVLKGLLDSKRNLNLVSSTASIKDLADVDLRIVMCLMCGDPFSADDILFPVLQSQTCKSSHCGSNNSVLLELPIGLHKKRIELSVLSYHSSFSIRKSRLVHGYIVFYSAKRKASLAMLRAFLCEVQDIIPIQLVALTDGAVDVLDNDLSREQLTEGEEIAQEIDGRFTSIPCSQPQHKLEIFHPFFKDVVEKKNIIEATHMYDNAAEACSTTEEVFNSPRAGSPLCNSNLQDSEEDIEPSYSLFREDTSLPSLSKDHSKLSMELEGNDGLSFIMSNFESKLNNKVPPPVKPKPPVHFEITKGDLSYLDQGHRDGQRKSVSSSPWLPQDGFDPSDYAEPMDAVVKPRNEEENIYSVPHDSTQGKIITIRNINKAQSNGSGNGSDSEMDTSSLERGRKVSIVSKPVLYRTRCTRLGRFASYRTSFSVGSDDELGPIRKKEEDQASQGYKGDNAVIPYETDEDPRRRNILRSLRRNTKKPKPKPRPSITKATWESNYFGVPLTTVVTPEKPIPIFIERCIEYIEATGLSTEGIYRVSGNKSEMESLQRQFDQDHNLDLAEKDFTVNTVAGAMKSFFSELPDPLVPYNMQIDLVEAHKINDREQKLHALKEVLKKFPKENHEVFKYVISHLNKVSHNNKVNLMTSENLSICFWPTLMRPDFSTMDALTATRTYQTIIELFIQQCPFFFYNRPITEPPGARPSSPSAVASTVPFLTSTPVTSQPSPPQSPPPTPQSPMQPLLPSQLQAEHTL
In the case of B2, the binding entry in test [5] is reported as “binds”.
